The source of these data is a collection of fitness landscapes (doi:10.1126/science.1257360).

B1: PhoQ; a variant is named by its letters at X, in order, P23837 (parent)
chain: MKKLLRLFFPLSLRVRFLLATAAVVLVLSLAYGMVALIGYSVSFDKTTFRLLRGESNLFYTLAKWENNKLHVELPENIDKQSPTMTLIYDENGQLLWAQRDVPWLMKMIQPDWLKSNGFHEIEADVNDTSLLLSGDHSIQQQLQEVREDDDDAEMTHSVAVNVYPATSRMPKLTIVVVDTIPVELKSSYMVWSWFIYVLSANLLLVIPLLWVAAWWSLRPIEALAKEVRELEEHNRELLNPATTRELTSLVRNLNRLLKSERERYDKYRTTLTDLTHSLKTPLXXLQXXLRSLRSEKMSVSDAEPVMLEQISRISQQIGYYLHRASMRGGTLLSRELHPVAPLLDNLTSALNKVYQRKGVNISLDISPEISFVGEQNDFVEVMGNVLDNACKYCLEFVEISARQTDEHLYIVVEDDGPGIPLSKREVIFDRGQRVDTLRPGQGVGLAVAREITEQYEGKIVAGESMLGGARMEVIFGRQHSAPKDE

The other results are listed elsewhere or left out.

The test covers variants of B1. As to the kind of experiment: enrichment ratio after two sorts for PhoP signalling (ratio (wild type AVST 3.29)); higher = more functional. Conditions: with PhoP (E. coli).
On to LKEE, for which the enrichment ratio is ≤ 0.25. HWAS: the enrichment ratio was ≤ 0.25.

In the case of FILK, the enrichment ratio stood at 0.268. Next, RNMG: ≤ 0.25. Next, MNGD: ≤ 0.25; PFHD: ≤ 0.25. With RGFV, the enrichment ratio is ≤ 0.25.

Take RYMI: the enrichment ratio was ≤ 0.25. For SWII, the enrichment ratio was ≤ 0.25. Next, NSHI: ≤ 0.25; YHAH: ≤ 0.25. On to QFMA, for which the enrichment ratio was ≤ 0.25.

As to PMKV, the enrichment ratio is ≤ 0.25.

Take NGLQ: the enrichment ratio is ≤ 0.25. Next, AAEP: ≤ 0.25; IDMQ: ≤ 0.25. Next, EKDG: ≤ 0.25; WIAG: ≤ 0.25. As to NFCT, the enrichment ratio is ≤ 0.25. Next, CRTL: ≤ 0.25.

Take PGCH: the enrichment ratio was ≤ 0.25. Next, KLDT: ≤ 0.25; TRCF: 1.17; TGVR: ≤ 0.25. Next, RQMA: ≤ 0.25.

Consider PPVN, for which the enrichment ratio was ≤ 0.25. Next, FEGN: ≤ 0.25; QRAI: ≤ 0.25. Next, VNKR: ≤ 0.25. Next, LHRV: ≤ 0.25.

With LMFP, the enrichment ratio was ≤ 0.25. Next, FVTD: ≤ 0.25. Turning to IPMY, the enrichment ratio is ≤ 0.25.

On to DRQN, for which the enrichment ratio was ≤ 0.25. Next, QPGP: ≤ 0.25. Next, SDWY: ≤ 0.25; VYAL: ≤ 0.25; QGRA: ≤ 0.25. In the case of IQVN, the enrichment ratio was ≤ 0.25. Next, ILMW: ≤ 0.25; DSRK: ≤ 0.25. Next, MGWW: ≤ 0.25; HTWW: ≤ 0.25; NYCR: ≤ 0.25.

Turning to KGEW, the enrichment ratio is ≤ 0.25. Next, WFIV: ≤ 0.25. Next, VVPP: ≤ 0.25. Next, NFNK: ≤ 0.25; ISLM: 12.9; EIVP: ≤ 0.25. Consider ADDH, for which the enrichment ratio was ≤ 0.25. In the case of WYYG, the enrichment ratio was ≤ 0.25. Next, GSFT: ≤ 0.25; TPIF: ≤ 0.25. Next, TFLA: 4.85; LDGN: ≤ 0.25; IAIH: ≤ 0.25. For MEDP, the enrichment ratio is ≤ 0.25. On to TKCP, for which the enrichment ratio is ≤ 0.25. Next, NLTW: ≤ 0.25; SQLG: 19.1; HVNW: ≤ 0.25. Next, HGAY: ≤ 0.25; QCSA: 7.28; WDRN: ≤ 0.25.

With HLGM, the enrichment ratio was ≤ 0.25. Next, WTKP: ≤ 0.25; MHWM: ≤ 0.25; NHLT: ≤ 0.25. Next, MHPI: ≤ 0.25.

For the variant MEVV, the enrichment ratio amounted to 2.27. Consider MHSE, for which the enrichment ratio was ≤ 0.25. Next, LHEG: ≤ 0.25.

Turning to YGNW, the enrichment ratio is ≤ 0.25.

Consider NFFI, for which the enrichment ratio was ≤ 0.25. Next, LFPV: ≤ 0.25; KWYL: ≤ 0.25; WYGC: ≤ 0.25.

As for NYCK, the enrichment ratio was ≤ 0.25. With KGLE, the enrichment ratio was ≤ 0.25. Next, WLFV: ≤ 0.25; KGSD: ≤ 0.25; WNSL: ≤ 0.25.

On to ESLC, for which the enrichment ratio was ≤ 0.25.

Consider HDQS, for which the enrichment ratio was ≤ 0.25. Next, THYQ: ≤ 0.25. Next, VCAL: 7.03. Next, PLIY: ≤ 0.25. Regarding NVMY, the enrichment ratio is ≤ 0.25. Next, KEMS: ≤ 0.25; FSGA: ≤ 0.25. Next, VHCA: ≤ 0.25.

For NRWP, the enrichment ratio was ≤ 0.25.

Turning to WYNK, the enrichment ratio is ≤ 0.25. With YSQS, the enrichment ratio is ≤ 0.25. Next, VDQH: ≤ 0.25; RYDP: ≤ 0.25. Next, AYAF: ≤ 0.25; PRRW: ≤ 0.25; YEVD: ≤ 0.25. Next, EDNK: ≤ 0.25; MNIH: ≤ 0.25; SFKS: ≤ 0.25. Consider ERFL, for which the enrichment ratio was ≤ 0.25. Next, MMHK: ≤ 0.25.

With MECV, the enrichment ratio is 18.2. Next, TSPV: ≤ 0.25; IDDM: ≤ 0.25; FPKR: ≤ 0.25. Next, RMPG: ≤ 0.25; IVGY: ≤ 0.25; PRTC: ≤ 0.25. Next, MLDV: ≤ 0.25.

Take LLES: the enrichment ratio was ≤ 0.25. Regarding FIID, the enrichment ratio is ≤ 0.25. Next, GTPW: ≤ 0.25; ISKN: ≤ 0.25; EGKY: ≤ 0.25.

Take KSWN: the enrichment ratio is ≤ 0.25. Next, FRGN: ≤ 0.25; IPPT: ≤ 0.25. As to IDYL, the enrichment ratio was ≤ 0.25. In the case of QLNI, the enrichment ratio was ≤ 0.25. Next, YSCI: 2.62; DKFA: ≤ 0.25; SDHH: ≤ 0.25. For KMNS, the enrichment ratio is ≤ 0.25.

Consider RNQC, for which the enrichment ratio was ≤ 0.25. In the case of SQNP, the enrichment ratio is ≤ 0.25.

For the variant SIFN, the enrichment ratio came out at 0.521. WNST: the enrichment ratio was ≤ 0.25.

Regarding ITRY, the enrichment ratio is ≤ 0.25. Next, ANDI: ≤ 0.25.

In the case of LHWF, the enrichment ratio was ≤ 0.25. Next, AVCC: 8.73; EFHT: ≤ 0.25. Next, LGKE: ≤ 0.25; ILYQ: ≤ 0.25; KQSQ: ≤ 0.25. Next, HDNQ: 2.96; NSPC: ≤ 0.25. Regarding PIAT, the enrichment ratio was ≤ 0.25. With GIHW, the enrichment ratio is ≤ 0.25. Next, TLAR: 0.326. In the case of PTYK, the enrichment ratio was ≤ 0.25.

In the case of GSQG, the enrichment ratio is ≤ 0.25. Next, DAVE: ≤ 0.25; PKFN: ≤ 0.25. Next, GCCG: 18.1; TIFI: 0.264; KRND: ≤ 0.25. On to WDIL, for which the enrichment ratio was ≤ 0.25. Next, QRYP: ≤ 0.25.
